# Results from the supplement of paper PMC3334620.
# In all, about 33,000 sequences were measured (“E-score (-0.5 to 0.5)”: median about -0.032, highest 2% from about 0.36 on). Some of the results follow.
# Target: T1, Sko1 (UniProt Q02100)
# T1 sequence: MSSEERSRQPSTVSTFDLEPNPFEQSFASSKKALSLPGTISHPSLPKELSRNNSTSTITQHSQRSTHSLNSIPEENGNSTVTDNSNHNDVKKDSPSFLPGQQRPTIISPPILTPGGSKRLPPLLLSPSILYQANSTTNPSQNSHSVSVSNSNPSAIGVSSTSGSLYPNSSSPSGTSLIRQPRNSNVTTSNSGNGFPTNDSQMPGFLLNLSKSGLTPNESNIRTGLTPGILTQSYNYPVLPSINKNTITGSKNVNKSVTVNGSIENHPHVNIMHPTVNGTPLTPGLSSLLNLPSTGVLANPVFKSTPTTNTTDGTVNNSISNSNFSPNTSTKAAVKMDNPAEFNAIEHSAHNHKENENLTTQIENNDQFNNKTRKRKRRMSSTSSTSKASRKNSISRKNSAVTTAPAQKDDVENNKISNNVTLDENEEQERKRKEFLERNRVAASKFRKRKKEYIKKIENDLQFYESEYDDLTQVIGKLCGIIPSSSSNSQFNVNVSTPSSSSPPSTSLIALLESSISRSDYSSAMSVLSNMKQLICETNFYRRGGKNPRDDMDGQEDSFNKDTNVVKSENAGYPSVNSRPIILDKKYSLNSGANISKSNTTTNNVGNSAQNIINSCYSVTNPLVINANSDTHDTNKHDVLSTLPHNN
# Assay: PBM E-score (8-mer binding enrichment) (E-score (-0.5 to 0.5)); higher = stronger / more preferred TF binding; most listed sequences are background and not binding sites
# Conditions: protein concentration: 200 nM; construct: GST-full length
# Method in brief: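 The E-score, a modified Wilcoxon-Mann-Whitney statistic, was computed by the Universal PBM Analysis Suite for every ungapped eight-base word pooled with its reverse complement. Scans behind it were normalised with masliner after bound GST-tagged yeast transcription factors were detected with fluorescent anti-GST. The proteins, at about 100-200 nM, had been applied to universal all-10-mer Agilent arrays made double-stranded by primer extension.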
row,Sequence,PBM E-score
1,AGACCGGG,-0.234
2,ACGCAAGG,0.316
3,CTACCTCA,-0.0201
4,AGCGCTAG,-0.16
5,CATGTCCG,-0.128
6,CCGGACGA,-0.204
7,CCTTCAGA,-0.0862
8,CACACGCG,0.104
9,GAGATTCC,-0.277
10,AATCTTCC,-0.236
11,ATGTTAGG,-0.0583
12,AGAAGTCT,-0.116
13,CCATTAGA,-0.162
14,ATCTAATG,0.0212
15,CACAAACA,0.15
16,CTACATTA,0.00265
17,AGAACACC,-0.0444
18,ACACAAGA,0.114
19,ATTACGAC,0.396
20,GAGTCCCA,-0.209
21,AGTTAGGG,-0.097
22,CCCGTTCC,-0.309
23,AAACTTAA,0.191
24,GACGCAGC,0.105
25,AATAGGAG,-0.0512

row,Sequence,PBM E-score
1,TAGAAAGA,-0.114
2,AGAAGCGC,-0.142
3,AATTGAAG,-0.0823
4,ACTAGGAG,-0.15
5,ACTCTTAC,0.138
6,CGGTCCGA,-0.204
7,AAGTGTAG,0.0389
8,AAAAAGTG,0.0802
9,ACAAGCAC,-0.0846
10,GTGTACGA,0.143
11,GCCCAGAC,-0.33
12,CCTGAAAA,0.0433
13,ATAGTGAT,0.138
14,CCGGTCGC,-0.241
15,AATAAGTA,0.139
16,GCGCCCTA,-0.204
17,AGATTTGA,0.144
18,AGTCTTGC,0.0878
19,ATCTTTCA,0.0738
20,AGTCCAAC,-0.152
21,GGGGTTCA,-0.358
22,AAGCCCTT,-0.126
23,AGGGGACG,-0.0256
24,CATACCCA,0.108
25,CTGGTTCA,-0.183

row,Sequence,PBM E-score
1,AGAACAAC,0.0231
2,CGACACTA,-0.0399
3,CATTTATA,0.206
4,GCCGTGGA,-0.183
5,CATTTGGA,-0.0269
6,AGAGTTCA,-0.277
7,CGGGGGGA,-0.383
8,GACCCGTC,-0.247
9,AGGGCTGG,-0.176
10,AACATATA,0.0997
11,CTAAGTTC,0.00137
12,GGAGATCC,-0.25
13,AATGTCTA,0.0916
14,TTGCAAAA,-0.0287
15,CACCGACC,-0.104
16,AATGTTAA,0.0879
17,ACTGCGAT,-0.0641
18,AGACCGCA,-0.14
19,CAAGCAAG,-0.141
20,AGCTCCAA,-0.0295
21,GGCCTCGA,-0.299
22,CCTGGCAA,-0.0805
23,GTCACTAA,0.228
24,ATTACCGC,0.044
25,TCAAGGGA,-0.24

row,Sequence,PBM E-score
1,AGGCGCGA,-0.243
2,ATCAACCC,0.117
3,GCTTCCCC,-0.287
4,TAGTCTCA,-0.0177
5,AAGGGTGC,-0.227
6,ACCCCACA,-0.176
7,CATTTCCG,0.0405
8,ACCCAGAG,-0.108
9,CTACGACA,0.199
10,CCCGCCAG,-0.198
11,CAAAAAGA,0.15
12,CGTTAGGC,-0.0977
13,AACCTACT,-0.0934
14,CTCGGAGC,-0.137
15,AATAAGCG,-0.117
16,CCCGTAGC,-0.291
17,CTACACAC,0.0581
18,AATTCACA,0.218
19,CAACGTTA,0.257
20,GACGGGGC,-0.172
21,CGAAGTGC,0.244
22,GTATTCCA,0.0354
23,TTACTAAA,0.249
24,CCTAGGCG,-0.187
25,GTCAGAAA,0.0323

row,Sequence,PBM E-score
1,ACACAACC,-0.169
2,CATGATTC,-0.0995
3,AATAAAAC,0.201
4,GGCAAGTA,-0.127
5,ATAATGGA,0.068
6,CGTGCAGC,0.0961
7,ACCCATTC,-0.0447
8,GGGGGCCA,-0.308
9,ATTACTAA,0.205
10,ACATGCTG,0.0437
11,ATACTATG,0.098
12,CCTTAACG,0.0975
13,CACCACCA,-0.14
14,AAATGCGG,-0.0861
15,GTTTGAAA,0.166
16,ACAATGTG,0.044
17,GCCACATA,0.0614
18,CGCTTACC,-0.0338
19,ACATGCGT,0.203
20,CGACGGAC,0.0805
21,CCATTGGA,-0.211
22,GATGTGTA,0.0475
23,CATTTCGC,0.0468
24,ATCAAGCG,0.137
25,CTTTGCGC,0.193

row,Sequence,PBM E-score
1,AAAATGAA,-0.0162
2,GCGCATTA,0.0455
3,AGATCTTA,0.0261
4,CTTGCGCA,0.16
5,GTTACTCA,0.0403
6,CGTGATGC,0.322
7,CGGGATGC,-0.329
8,CCGACGGC,-0.262
9,CGTGTCAA,-0.0341
10,CAGTCCCG,-0.261
11,GCGATTAA,0.0926
12,AGTAGCTG,-0.146
13,AACTATAT,0.199
14,GAGGCGTA,0.0153
15,CGTGCTAG,0.0781
16,ATCATCTG,0.179
17,AAGATTTC,0.0128
18,ACCATTTG,-0.0957
19,TCAGACCA,0.0857
20,AGCTTGAA,-0.0717
21,GAACTAAA,0.0781
22,CCTTATGA,0.143
23,CCTTTCAG,-0.0989
24,GGAGCGCA,-0.272
25,CAAGTTAC,0.0695

row,Sequence,PBM E-score
1,ATTTTACC,0.252
2,CGCTTCCA,0.0987
3,GTTTGGAA,0.171
4,ATAGGCGG,-0.16
5,GGACAGAC,-0.187
6,CGCGACAC,0.0403
7,AGTGCGTA,0.376
8,GAAGGATC,-0.223
9,ACCACGTA,0.441
10,CGAGGAAG,-0.214
11,CGTGAGCA,0.095
12,CAATACCG,-0.186
13,ACTTCTCA,0.0756
14,GACAGTGC,0.0291
15,AGCATGGG,-0.252
16,GAATGAGA,-0.0934
17,AATGTGCA,0.02
18,AAGCAAGC,-0.0806
19,GTAAATAC,0.265
20,AGTGAGCG,-0.0041
21,GGAGTGCA,-0.278
22,TTGCGAAA,0.188
